# Test results published in PubChem BioAssay AID624296 (National Center for Advancing Translational Sciences (NCATS), 2012).
# In all, about 350,000 compounds went through this assay and about 9,900 (2.8%) were called active. The shares of active, inactive and inconclusive entries below differ from those in the screen. Calls follow the shape of the dose curve; as a rule, active = well fitted activation curve with a large enough effect; inconclusive = small, poorly fitted or top-dose-only effect; inactive = no such curve, though single readings can be large or run the other way. Potencies of inconclusive entries are left out as doubtful fits.
# Assay: A quantitative high throughput screen for small molecules that induce DNA re-replication in MCF 10a normal breast cells. Also: nearly all actives have a fitted effect of over 50% in size. As to activity, positive = re-replication: % of control where 0% means no effect.
# Conditions: MCF 10A DNA re-replication, Hoechst nuclear intensity, 48 h; activity, positive = re-replication: at 46.1 µM (top of the series)
# Potency is read from the fitted curve at half-maximal effect; tags tell the direction and shape of the fitted curve.
SMILES,"activity, positive = re-replication",Potency
O=C(Nc1nnc(-c2ccc(Br)cc2)o1)c1cccc(N2C(=O)CCC2=O)c1,inactive: 10.9%,
CCOc1ccc2c(c1)nc(SCC(=O)c1ccc(Br)s1)n2C,inactive: 75.7%,
O=C(NCc1cccc(C(F)(F)F)c1)C1CC(c2ccccc2F)=NO1 (centres undefined),,"inconclusive [activator, partial curve, poor fit]"
Cc1cc(NC(=O)/C(C#N)=C/c2ccc(-c3cccc(C(F)(F)F)c3)o2)n(-c2ccccc2)n1,,"inconclusive [activator, single point]"
COC(=O)N/N=C/c1ccc(-c2cccc(Cl)c2)o1,inactive: 3.62%,
O=C(CSc1nnc(-c2ccccc2F)o1)OCc1ccccc1,,"inconclusive [activator, full curve, poor fit]"
CN1CCN(C(=O)CNC(=O)C23CC4CC(CC(C4)C2)C3)CC1,,"inconclusive [activator, single point]"
Cn1c(N)c(C(=O)COC(=O)c2cc(S(=O)(=O)NCc3ccccc3)ccc2O)c(=O)n(C)c1=O,inactive: 0.715%,
O=C(NNC(=O)c1cccs1)c1ccc(Br)cc1,inactive: -26.2%,
CC1CCCC(NC(=O)Cc2ccc(Br)cc2)C1C (centres undefined),,"inconclusive [activator, single point]"
Nc1cc2c(cc1Cl)-c1ccc(Cl)cc1C2=O,inactive: 2.2%,
CC(=O)c1cccc(CN2CCN(CC(C)C)C(CCO)C2)c1 (centres undefined),,"inconclusive [activator, single point]"
COC1(c2cc(-c3ccccc3)nc(N)n2)CCCCC1,,"inconclusive [activator, single point]"
CN1C2CCC1CC(OC(c1ccccc1)c1ccccc1)C2 (centres undefined),,"inconclusive [activator, single point]"
COc1ccc(Br)cc1CN1CCCC(C(=O)N2CCCCCC2)C1 (centres undefined),,"inconclusive [activator, partial curve]"
O=C(Cn1cnc2cc([N+](=O)[O-])ccc2c1=O)N(Cc1ccccc1)C1CCS(=O)(=O)C1 (centres undefined),inactive: 0.0662%,
COC(=O)C1=C(CSc2nc3c(cc2C#N)CN(C)CC3)OC(N)=C(C#N)C1c1ccccc1F (centres undefined),,"inconclusive [activator, single point]"
c1ccc(N/N=C(\Cc2ncc[nH]2)c2ccccc2)cc1,inactive: 1.95%,
COc1cccc(NC(=O)[C@H](CC(C)C)NC(=O)N2CCn3c2nc2ccccc23)c1,inactive: 8.33%,
COc1ccccc1-c1nnc(NC(=O)c2ccc3c(c2)OCO3)s1,,"inconclusive [activator, partial curve, poor fit]"
COc1ccc(Cl)cc1C(=O)NNC(=S)NC(=O)c1ccc(F)c(F)c1,,"inconclusive [activator, partial curve, poor fit]"
O=c1/c(=C/c2ccco2)sc2n1CN(c1cccc(Br)c1)CN=2,,"inconclusive [activator, single point]"
CCOC(=O)C(NC(=O)c1ccccc1Cl)(Nc1sc2c(c1C(N)=O)CCC2)C(F)(F)F (centres undefined),,"inconclusive [activator, single point]"

SMILES,"activity, positive = re-replication",Potency
Cc1cc(NC2C3CC4CC(C3)CC2C4)n2ncnc2n1 (centres undefined),,"inconclusive [activator, partial curve, poor fit]"
Fc1ccc(-c2cc(C(F)(F)C(F)F)[nH]n2)cc1,,"inconclusive [activator, single point]"
COc1cc2c(cc1OC)C(C)N(C(=O)c1cc3c(s1)-c1c(C)cccc1OC3)CC2 (centres undefined),,active: 16.4 µM
CCN1CCN(CCCN(Cc2ccco2)C(=S)Nc2ccccc2Cl)CC1,inactive: 7.33%,
CN(c1ccccc1)S(=O)(=O)c1ccc(-c2ccccc2)cc1,,"inconclusive [activator, single point]"
Cc1cc(-c2onc(C)c2C(=O)Oc2ccc(Cl)cc2)no1,,"inconclusive [activator, single point]"
CC(C)CN1C(=O)c2ccccc2C1(O)Cc1ccccc1 (centres undefined),,"inconclusive [activator, single point]"
O=C(N/N=C/c1sc2ccccc2c1O)c1ccccc1,,"inconclusive [activator, full curve, poor fit]"
O=C(/C=C(\O)c1ccc(Cl)cc1)C(=O)NNC(=O)C(O)(c1ccccc1)c1ccccc1,,"inconclusive [activator, single point]"
COc1ccc(N(C(=O)COc2cccc(C)c2)S(=O)(=O)c2ccc(C)cc2)cc1,,"inconclusive [activator, partial curve, poor fit]"
CC1(c2ccc(OC(F)F)cc2)NC(=O)N(CC(=O)c2ccc3c(c2)OCO3)C1=O (centres undefined),,"inconclusive [activator, partial curve, poor fit]"
CN1CC[C@H](CN2c3ccccc3Sc3ccccc32)C1,,"inconclusive [activator, partial curve, poor fit]"
Cc1ccc(CNC(=O)[C@H](C)[C@H]2C[C@]2(C)[C@H](NC(=O)OCc2ccccc2)c2ccccc2)o1,,"inconclusive [activator, single point]"
CCOc1ccc(/C=N/NC(=O)C(=O)N2CCCCCC2)c2ccccc12,,"inconclusive [activator, single point]"
CCOC(=O)c1cc(-c2ccccc2)nn1CCC#N,inactive: 10.6%,
CCN1CC=C2C(C#N)=C(N)C(C#N)(C#N)C(CCc3ccccc3)C2C1 (centres undefined),,"inconclusive [activator, full curve, poor fit]"
CCOc1ccc2[nH]c(=O)c(CN(CCCN3CCOCC3)C(=O)Nc3ccc(F)cc3)cc2c1,inactive: -16.3%,
N#C/C(=C\c1cn(CCOc2ccccc2F)c2ccccc12)C(=O)NCc1cccs1,,"inconclusive [activator, single point]"
CC(C)(C)NC(=O)CN(C(=O)C1CSC(=O)C1)c1ccccc1F (centres undefined),inactive: -1.4%,
Cn1c(Sc2ccc(Br)cc2)c(C=O)c2ccccc21,,"inconclusive [activator, partial curve, poor fit]"
O=S(=O)(NCC(c1ccco1)N1CCN(c2ccccc2F)CC1)c1ccc2c(c1)OCCO2 (centres undefined),,"inconclusive [activator, partial curve, poor fit]"
COCCNC(=O)/C(C#N)=C/c1cccc(NC(=O)c2ccccc2Cl)c1,,"inconclusive [activator, single point]"
COc1ccc(-c2cc(C(F)(F)F)n3nc(C(=O)NCCCN4CCOCC4)cc3n2)cc1,,"inconclusive [activator, single point]"

SMILES,"activity, positive = re-replication",Potency
COc1ccc(CN2C(=O)C(C)Nc3ncnc(N4CCOCC4)c32)cc1 (centres undefined),,"inconclusive [activator, single point]"
O=c1c([N+](=O)[O-])cccn1Cc1cccc(Br)c1,inactive: 3.91%,
NC(=S)N/N=C/c1cccnc1,inactive: -0.496%,
Cc1ccc(-n2c(C)nc3c(cnn3-c3ccccc3Cl)c2=O)cc1C,inactive: 0.471%,
Cc1ccc(-c2csc(N3CCN(CCCn4c(-c5ccncc5)nc5ccccc54)CC3)n2)cc1,,active: 23.1 µM
CC1CCCN(c2ccc(C(=O)NCc3ccccc3)cn2)C1 (centres undefined),,"inconclusive [activator, partial curve, poor fit]"
CNC(=S)N/N=C1\CC(c2ccccc2)Oc2ccccc21 (centres undefined),inactive: 17.1%,
CNc1nc(Nc2ccc([N+](=O)[O-])cc2)nc(OCC(F)(F)F)n1,,"inconclusive [activator, single point]"
O=S(=O)(Nc1ccc(O)c2ccccc12)c1ccc(F)cc1,,"inconclusive [activator, single point]"
Cc1cc(C)n(C(CC(=O)N2CCc3ccccc3C2)C(=O)O)n1 (centres undefined),,"inconclusive [activator, single point]"
CCc1ccc(S(=O)(=O)N2c3ccc(C)cc3C3CN(C)CCC32)cc1 (centres undefined),,"inconclusive [activator, partial curve, poor fit]"
CN(CCC#N)S(=O)(=O)c1ccc2c(c1)c(=O)n(C)c(=O)n2C,,"inconclusive [activator, single point]"
COc1ccccc1CN(C)C(=O)COC(=O)c1ccc(Cl)nc1,inactive: -37.1%,
O=C(Nc1nc2ccccc2s1)c1cc(-c2ccccc2)nn1-c1ccccc1,,"inconclusive [activator, partial curve, poor fit]"
O=C(CC1C(=O)NCCN1CCCc1ccccc1)NCCc1ccccc1Cl (centres undefined),inactive: 2.03%,
O=C(CSc1nnc(-c2ccccc2)n1-c1ccccc1)N1c2ccccc2Sc2ccccc21,inactive: 15.2%,
O=C(c1ccc(Oc2ccc([N+](=O)[O-])cc2Cl)cc1)N1CCCC1,inactive: -7.97%,
O=C(N/N=C/c1ccccn1)c1cc(-c2ccc3ccccc3c2)n[nH]1,,"inconclusive [activator, single point]"
C[C@H](CO)N1C[C@H](C)[C@@H](CN(C)C(=O)NC2CCCCC2)Oc2ccc(NS(=O)(=O)c3cccs3)cc2C1=O,,"inconclusive [activator, full curve, poor fit]"
C=CCn1c(-c2csc(-c3ccc(Cl)cc3)n2)n[nH]c1=S,inactive: -1.07%,
Cc1nn(CCc2n[nH]c(=S)n2-c2ccc(F)cc2)c(C)c1[N+](=O)[O-],inactive: -2.34%,
Cc1cccc(N2CCN(C(=O)c3ccc(N4CCCC4=O)cc3)CC2)c1C,inactive: -2.09%,
O=c1[nH]c(CS(=O)(=O)c2ccccc2)nc2ccccc12,inactive: 4.89%,
